Here are results for 14 compounds from ChEMBL document CHEMBL1961873, “Compounds: GSK PKIS; Assays: Nanosyn kinase panel” (2012).

Structures are written as SMILES. For some of these results: Most of the strong results are listed elsewhere, so they are rarer here than in the full data. The entries are a selection whose mix differs from that of the whole data set.

As usually defined, the inhibition is the drop in the measured response relative to a control, in per cent.

Assay [1] has as its system Proto-oncogene tyrosine-protein kinase receptor Ret (Homo sapiens), P07949 [Y791F]. The following applies: at 1 µM.
Assay [2] deals with Macrophage-stimulating protein receptor (Homo sapiens) (UniProt Q04912). The following applies: at 1 µM.
In assay [3] the target is Proto-oncogene tyrosine-protein kinase ROS (Homo sapiens) (UniProt P08922). The following applies: at 0.1 µM.
Assay [4] has the same target. The following applies: at 1 µM.
In assay [5] the target is Proto-oncogene tyrosine-protein kinase Src (Homo sapiens) (UniProt P12931). The following applies: at 0.1 µM.
Assay [6] has the same target. The following applies: at 1 µM.
Assay [7] addresses Tyrosine-protein kinase Srms (Homo sapiens) (UniProt Q9H3Y6). The following applies: at 0.1 µM.
Assay [8] has the same target. The following applies: at 1 µM.
The target of assay [9] is Tyrosine-protein kinase SYK (Homo sapiens) (UniProt P43405). The following applies: at 0.1 µM.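 Also: reported percentages are mean inhibition values for SYK.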
Assay [10] addresses Macrophage-stimulating protein receptor (Homo sapiens) (UniProt Q04912). The following applies: at 0.1 µM.

UniProt Q04912, sequence (Q04912 whole entry): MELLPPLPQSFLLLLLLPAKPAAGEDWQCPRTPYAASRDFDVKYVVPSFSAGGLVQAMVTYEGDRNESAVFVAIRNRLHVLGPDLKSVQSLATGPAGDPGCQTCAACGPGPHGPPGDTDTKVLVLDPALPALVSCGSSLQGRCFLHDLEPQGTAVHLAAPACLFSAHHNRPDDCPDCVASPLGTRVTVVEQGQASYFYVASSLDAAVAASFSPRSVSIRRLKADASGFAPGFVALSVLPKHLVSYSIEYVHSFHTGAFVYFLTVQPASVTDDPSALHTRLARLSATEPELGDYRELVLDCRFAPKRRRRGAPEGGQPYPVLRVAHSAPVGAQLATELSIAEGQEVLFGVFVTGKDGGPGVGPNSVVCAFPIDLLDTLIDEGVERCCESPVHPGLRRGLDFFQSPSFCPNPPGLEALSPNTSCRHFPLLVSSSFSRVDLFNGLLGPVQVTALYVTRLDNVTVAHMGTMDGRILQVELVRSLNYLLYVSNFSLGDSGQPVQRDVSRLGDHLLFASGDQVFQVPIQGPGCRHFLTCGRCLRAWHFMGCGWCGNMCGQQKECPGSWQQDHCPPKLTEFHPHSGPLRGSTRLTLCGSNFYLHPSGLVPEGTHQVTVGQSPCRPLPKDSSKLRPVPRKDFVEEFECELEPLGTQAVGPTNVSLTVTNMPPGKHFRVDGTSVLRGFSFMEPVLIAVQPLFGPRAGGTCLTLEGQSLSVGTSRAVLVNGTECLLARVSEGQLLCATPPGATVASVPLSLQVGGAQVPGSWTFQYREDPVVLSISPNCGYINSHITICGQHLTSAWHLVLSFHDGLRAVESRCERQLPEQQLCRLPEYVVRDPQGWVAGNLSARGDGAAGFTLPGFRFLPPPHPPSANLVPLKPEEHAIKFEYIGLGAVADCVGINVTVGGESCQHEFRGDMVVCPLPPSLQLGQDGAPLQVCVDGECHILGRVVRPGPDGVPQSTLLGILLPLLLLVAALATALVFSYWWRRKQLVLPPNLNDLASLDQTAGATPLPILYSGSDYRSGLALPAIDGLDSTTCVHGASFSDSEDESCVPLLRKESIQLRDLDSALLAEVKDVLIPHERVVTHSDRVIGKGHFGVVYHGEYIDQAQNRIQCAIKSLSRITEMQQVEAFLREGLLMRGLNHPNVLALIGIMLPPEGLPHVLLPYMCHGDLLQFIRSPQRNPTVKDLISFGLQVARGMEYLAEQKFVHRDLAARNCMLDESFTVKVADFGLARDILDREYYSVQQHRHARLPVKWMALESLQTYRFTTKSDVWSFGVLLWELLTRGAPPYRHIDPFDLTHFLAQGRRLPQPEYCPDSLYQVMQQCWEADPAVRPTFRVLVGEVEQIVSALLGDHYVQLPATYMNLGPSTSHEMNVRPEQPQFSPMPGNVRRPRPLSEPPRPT
UniProt P08922, sequence (P08922 whole entry): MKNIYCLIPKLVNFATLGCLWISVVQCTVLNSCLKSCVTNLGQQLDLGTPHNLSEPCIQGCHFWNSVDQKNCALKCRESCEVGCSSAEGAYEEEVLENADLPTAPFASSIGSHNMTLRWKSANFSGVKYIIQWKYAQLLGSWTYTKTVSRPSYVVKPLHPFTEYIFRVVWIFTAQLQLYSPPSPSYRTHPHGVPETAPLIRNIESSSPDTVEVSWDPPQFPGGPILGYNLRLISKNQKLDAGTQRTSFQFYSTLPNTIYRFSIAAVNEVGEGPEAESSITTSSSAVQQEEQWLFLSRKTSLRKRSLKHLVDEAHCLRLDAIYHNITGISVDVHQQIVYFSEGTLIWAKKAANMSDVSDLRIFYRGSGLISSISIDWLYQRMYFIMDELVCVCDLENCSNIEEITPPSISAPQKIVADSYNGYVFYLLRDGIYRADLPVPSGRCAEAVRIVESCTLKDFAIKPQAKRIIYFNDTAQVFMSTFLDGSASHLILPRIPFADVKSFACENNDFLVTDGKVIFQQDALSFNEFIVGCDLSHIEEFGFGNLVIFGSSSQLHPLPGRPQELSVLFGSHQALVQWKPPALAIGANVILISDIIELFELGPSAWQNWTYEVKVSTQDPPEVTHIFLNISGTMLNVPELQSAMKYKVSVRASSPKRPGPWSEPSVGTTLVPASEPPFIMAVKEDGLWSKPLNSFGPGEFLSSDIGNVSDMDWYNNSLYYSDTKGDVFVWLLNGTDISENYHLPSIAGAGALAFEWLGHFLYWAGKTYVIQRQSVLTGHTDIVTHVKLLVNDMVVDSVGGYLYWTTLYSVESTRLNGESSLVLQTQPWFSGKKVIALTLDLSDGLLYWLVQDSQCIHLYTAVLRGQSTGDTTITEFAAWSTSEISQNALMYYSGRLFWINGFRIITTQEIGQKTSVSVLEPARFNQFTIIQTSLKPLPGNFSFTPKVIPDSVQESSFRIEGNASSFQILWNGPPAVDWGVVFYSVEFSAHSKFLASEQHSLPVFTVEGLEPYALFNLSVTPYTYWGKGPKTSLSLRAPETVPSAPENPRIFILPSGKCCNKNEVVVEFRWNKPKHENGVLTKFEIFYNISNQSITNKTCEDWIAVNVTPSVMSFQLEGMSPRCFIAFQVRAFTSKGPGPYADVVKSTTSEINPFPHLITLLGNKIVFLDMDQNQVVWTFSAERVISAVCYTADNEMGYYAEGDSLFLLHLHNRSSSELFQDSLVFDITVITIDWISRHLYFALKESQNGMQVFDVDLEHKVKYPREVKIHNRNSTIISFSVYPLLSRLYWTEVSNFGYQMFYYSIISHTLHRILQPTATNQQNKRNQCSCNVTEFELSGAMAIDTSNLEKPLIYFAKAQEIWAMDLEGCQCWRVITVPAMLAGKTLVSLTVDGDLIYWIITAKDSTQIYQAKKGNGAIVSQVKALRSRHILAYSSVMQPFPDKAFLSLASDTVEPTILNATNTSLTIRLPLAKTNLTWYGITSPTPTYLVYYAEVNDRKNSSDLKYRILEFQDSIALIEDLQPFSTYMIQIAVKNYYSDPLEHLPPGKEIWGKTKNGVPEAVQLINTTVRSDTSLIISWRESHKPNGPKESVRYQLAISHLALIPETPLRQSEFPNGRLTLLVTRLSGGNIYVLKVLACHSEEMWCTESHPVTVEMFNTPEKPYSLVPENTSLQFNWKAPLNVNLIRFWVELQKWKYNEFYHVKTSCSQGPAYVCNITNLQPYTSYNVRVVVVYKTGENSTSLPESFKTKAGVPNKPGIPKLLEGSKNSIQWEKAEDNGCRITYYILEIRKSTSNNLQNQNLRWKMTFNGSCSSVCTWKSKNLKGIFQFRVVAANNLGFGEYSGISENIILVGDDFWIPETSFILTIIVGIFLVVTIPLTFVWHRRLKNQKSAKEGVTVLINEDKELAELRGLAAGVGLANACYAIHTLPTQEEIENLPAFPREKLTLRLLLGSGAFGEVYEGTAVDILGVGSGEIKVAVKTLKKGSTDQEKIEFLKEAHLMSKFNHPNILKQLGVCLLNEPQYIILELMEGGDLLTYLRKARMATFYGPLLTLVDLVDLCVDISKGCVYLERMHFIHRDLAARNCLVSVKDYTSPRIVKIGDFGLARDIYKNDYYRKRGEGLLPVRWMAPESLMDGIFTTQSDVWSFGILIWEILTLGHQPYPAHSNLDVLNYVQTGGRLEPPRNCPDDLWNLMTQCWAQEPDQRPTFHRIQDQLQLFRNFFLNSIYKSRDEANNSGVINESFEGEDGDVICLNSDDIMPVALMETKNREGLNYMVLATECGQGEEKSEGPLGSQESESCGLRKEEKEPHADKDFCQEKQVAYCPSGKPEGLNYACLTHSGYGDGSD
UniProt Q9H3Y6, sequence (Q9H3Y6 whole entry): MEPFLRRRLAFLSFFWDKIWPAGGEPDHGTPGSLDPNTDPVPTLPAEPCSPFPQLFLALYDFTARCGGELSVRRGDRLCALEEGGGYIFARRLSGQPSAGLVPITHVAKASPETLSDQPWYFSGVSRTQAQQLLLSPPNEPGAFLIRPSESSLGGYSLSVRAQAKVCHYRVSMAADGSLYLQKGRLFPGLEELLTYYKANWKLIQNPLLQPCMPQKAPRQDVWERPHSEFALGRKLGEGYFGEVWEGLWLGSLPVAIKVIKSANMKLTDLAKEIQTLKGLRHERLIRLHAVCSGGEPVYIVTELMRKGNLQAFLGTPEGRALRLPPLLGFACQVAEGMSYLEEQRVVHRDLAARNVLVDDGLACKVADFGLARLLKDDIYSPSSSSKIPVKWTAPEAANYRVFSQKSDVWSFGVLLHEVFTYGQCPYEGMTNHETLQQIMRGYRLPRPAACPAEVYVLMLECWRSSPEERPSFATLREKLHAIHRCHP
UniProt P12931, sequence (P12931 whole entry, looked up): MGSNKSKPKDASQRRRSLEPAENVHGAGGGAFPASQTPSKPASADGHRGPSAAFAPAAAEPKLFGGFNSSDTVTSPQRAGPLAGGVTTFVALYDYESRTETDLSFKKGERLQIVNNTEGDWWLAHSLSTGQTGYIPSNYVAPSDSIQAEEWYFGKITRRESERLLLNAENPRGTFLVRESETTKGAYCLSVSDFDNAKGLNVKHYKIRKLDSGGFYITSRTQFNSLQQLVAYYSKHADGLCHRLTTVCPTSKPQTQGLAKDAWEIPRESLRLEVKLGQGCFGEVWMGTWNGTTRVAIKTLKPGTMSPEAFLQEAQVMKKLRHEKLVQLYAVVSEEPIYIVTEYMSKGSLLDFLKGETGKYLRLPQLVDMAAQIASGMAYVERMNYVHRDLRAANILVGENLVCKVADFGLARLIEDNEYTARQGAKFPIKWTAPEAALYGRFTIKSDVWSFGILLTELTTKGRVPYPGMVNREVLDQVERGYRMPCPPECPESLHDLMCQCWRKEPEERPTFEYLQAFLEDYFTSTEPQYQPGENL

`Fc1ccc(-c2ncn(C3CCNCC3)c2-c2ccnc(Oc3ccc(Cl)cc3)n2)cc1`: the inhibition in [1] came out at 2.31%; in assay [2], 0.73%; in assay [3], 2.81%; in assay [4] it was 2.37%; in assay [5], 1.09%; in [6], 2.18%. Moreover, the inhibition is 0.88% in [7], -2.37% in [8] and 1.97% in assay [9].
With `Fc1ccc(-c2ncn(C3CCNCC3)c2-c2ccnc(Oc3cccc(F)c3)n2)cc1`, the inhibition in assay [1] was determined as 10%; in [10] it was 4.71%; in assay [2], 6.11%; in assay [3] it was 8.29%; in [4] it was 7.15%; in assay [5] it was 9.91%. Besides, the inhibition in [6] was 17.8%; in [7], -0.73%; in assay [8] it was -2.24%; in assay [9] it was 1.94%.
In the case of `Fc1ccc(-c2ncn(C3CCNCC3)c2-c2ccnc(Oc3cccc(C(F)(F)F)c3)n2)cc1`, the inhibition was 13.1% in [1]; 0.55% in [10]; 3.73% in [2]; 5.11% in assay [3]; 7.94% in [4]; 9.16% in [5]. The inhibition in [6] was 7.46%; in [7], -0.82%; in assay [8], 0.72%; in assay [9] it was -0.53%.
Regarding `COc1ccccc1C1=C(Nc2ccccc2)C(=O)NC1=O`, the inhibition in assay [1] is 14.2%; in [10] it was -1.52%; in assay [2] it was 7.21%; in assay [3] it was 3.34%; in [4] it was 9.7%; in [5], 5.48%. Further, the inhibition is 27.4% in assay [6], 0.69% in [7], 4.8% in [8] and 2.4% in [9].
Regarding `CC(C)(C)c1ccc(Oc2nccc(-c3c(-c4ccc(F)cc4)ncn3C3CCNCC3)n2)cc1`, the inhibition was determined as 10.9% in assay [1]; 12.3% in [10]; 4.77% in assay [2]; 2.92% in [3]; 3.44% in assay [4]; 4.96% in [5]. For the same compound, the inhibition is 3.88% in [6], -1.17% in assay [7], -2.42% in assay [8] and 1.52% in assay [9].
On to `O=C1NC(=O)C(c2ccccc2)=C1Nc1ccccc1`, for which the inhibition in assay [1] was 21.6%; in assay [10], -3.29%; in assay [2] it was 1.37%; in assay [3], 4.6%; in [4], 6.36%; in [5], -1.81%. The inhibition is 13.1% in assay [6], -0.23% in assay [7], 6.26% in assay [8] and 0.88% in assay [9].
Consider `CS(=O)(=O)c1ccc(Oc2nccc(-c3c(-c4ccc(F)cc4)ncn3C3CCNCC3)n2)cc1`, for which the inhibition in [1] is 6.69%; in assay [10], 1.51%; in [2], -1.81%; in assay [3], 2.28%; in [4], 3.96%; in assay [5], 6.81%. The inhibition in assay [6] was 1.59%; in [7], -2.54%; in assay [8] it was -3.09%; in assay [9], -1.52%.
As to `Fc1ccc(Oc2nccc(-c3c(-c4ccc(F)cc4)ncn3C3CCNCC3)n2)cc1`, the inhibition in assay [1] stood at 3.97%; in assay [10], 8.43%; in assay [2] it was 7.68%; in assay [3] it was 10.5%; in assay [4], 7.48%; in assay [5], 9.5%. The inhibition is 15.7% in assay [6], -2.23% in assay [7], -2.77% in assay [8] and -1.36% in assay [9].
Take `Cc1cccc(Oc2nccc(-c3c(-c4ccc(F)cc4)ncn3C3CCNCC3)n2)c1C`: the inhibition in assay [1] was found to be 8.15%; in assay [10], 2.84%; in assay [2], 4.58%; in assay [3] it was 3.37%; in assay [4], 6.68%; in assay [5], 6.18%. Moreover, the inhibition in [6] is 6.58%; in assay [7] it was -3.49%; in [8], -3.09%; in assay [9], -1.99%.
With `O=C1NC(=O)C(c2ccccc2Cl)=C1Nc1cc(Cl)c(O)c(Cl)c1`, the inhibition is 14.8% in assay [1]; 0.51% in assay [10]; 3.62% in assay [2]; 1.97% in assay [3]; 4.36% in assay [4]; 0.44% in assay [5]. Also, the inhibition is 8.47% in [6], -9.89% in assay [7], -0.11% in [8] and -1.87% in [9].
For the compound `O=C(O)c1ccc(Oc2nccc(-c3c(-c4ccc(F)cc4)ncn3C3CCNCC3)n2)cc1`, the inhibition in assay [1] was determined as 3.57%; in assay [10], 8.05%; in [2], 3.75%; in assay [3], 8.51%; in assay [4], 9.04%; in [5], 9.4%. The inhibition was 12.2% in assay [6], -1.8% in [7], -4.6% in assay [8] and -0.23% in assay [9].
In the case of `O=C1NC(=O)C(c2cccc([N+](=O)[O-])c2)=C1Nc1cc(Cl)c(O)c(Cl)c1`, the inhibition in assay [1] is 2.45%; in assay [10] it was -0.68%; in assay [2], 0.58%; in [3], 1.82%; in assay [4], 4.51%; in assay [5] it was 1.09%. Besides, the inhibition in assay [6] was -0.12%; in [7], 1.05%; in [8], 0.6%; in assay [9], 1.08%.
As for `NC(=O)CCc1ccccc1Oc1nccc(-c2c(-c3ccc(F)cc3)ncn2C2CCNCC2)n1`, the inhibition in assay [1] was -0.45%; in assay [10] it was -4.13%; in [2], -1.88%; in [3] it was 2.96%; in assay [4], -1.19%; in [5] it was -1.91%. Also, the inhibition in assay [6] was -3.03%; in assay [7], -2.26%; in assay [8], -3.62%; in assay [9], 0.1%.
Consider `COc1ccccc1Oc1nccc(-c2c(-c3ccc(F)cc3)ncn2C2CCNCC2)n1`, for which the inhibition is 9.77% in assay [1]; 8.47% in [10]; 7.36% in assay [2]; 4.8% in assay [3]; 4.27% in assay [4]; 8% in assay [5]. The inhibition is 7.72% in assay [6], -2.6% in assay [7], -2.9% in assay [8] and -0.24% in [9].
